# Hit rate of the full screen: of about 52,000 compounds, about 4,300 (8.3%) were called active. Rule as the data show it: active = survival mostly below about 52% (no sharp cut-off); inactive = mostly above about 56%. Some of the results follow.
# Test system: DeltatarO mutant
# Test: S. aureus survival, RN4220 and DeltatarO strains – OD600, teichoic acid synthesis inhibitors, primary screen (AID 463173)
# Conditions: S. aureus RN4220 wild type/DeltatarO growth, OD600, 18 h, active compounds read low, screened at 18.75 µg/mL (by protocol)
row,Structure (SMILES),survival
1,CCc1cccc(C)c1NC(=O)Cn1c(=O)cc(C)c2c(C)nn(-c3cccc(F)c3)c21,inactive: 85%
2,Cc1c(CCNC(=O)c2ccco2)sc2nc(-c3ccc(F)cc3)nn12,inactive: 67%
3,Cc1ccc(NC(=O)CN2CCSc3ccc(S(=O)(=O)N4CCCC4)cc32)cc1,inactive: 77%
4,CC(=O)c1ccc(NC(=O)Cn2c(-n3nc(C)cc3C)nc(C)c(C)c2=O)cc1,inactive: 55%
5,CCN(CC)c1cc2c(cc1F)c(=O)c(S(=O)(=O)c1ccc(OC)cc1)cn2Cc1ccccc1,inactive: 122%
6,CCOc1ccccc1Nc1nnc(-c2cc3cc(OC)ccc3oc2=O)s1,inactive: 90%
7,CCOC(=O)Cc1ccc(NC(=O)N2CCC(CN3CCCCCC3)CC2)cc1,inactive: 80%
8,CCCCN(CC)C(=O)c1cc2c(=O)n3cccc(C)c3nc2n1C,active: 56%
9,CCc1ccc(Oc2c(C(F)(F)F)oc3c(CN4CCC(C)CC4)c(O)ccc3c2=O)cc1,inactive: 79%
10,Cc1ccc(S(=O)(=O)CC(=O)Nc2sc3c(c2C(N)=O)CCCC3)cc1,inactive: 94%
11,CCc1ccc(NC(=O)Cc2c(C(=O)O)c(C)cn2C)cc1,inactive: 87%
12,Cc1ccccc1Nc1c(-c2ccc(Br)o2)nc2ccc(Cl)cn12,active: 37%
13,CC(C)CCNC(=O)Nc1ccc2c(c1)N(Cc1ccccc1)C(=O)c1ccccc1S2,inactive: 79%
14,COc1cc(OC)c(NC(=O)c2cc(C)nc3c2c(C)nn3-c2ccc(C)cc2)cc1Cl,inactive: 103%
15,COc1ccc(CCNC(=O)c2ccc3c(c2)N(Cc2ccc(Cl)cc2)C(=O)c2ccccc2S3)cc1OC,inactive: 61%
16,CCOc1ccc(-c2nn(CC(=O)NC3CCCC3)c3c2cnc2ccc(C)cc23)cc1,inactive: 91%
17,Cc1cc(=O)n2nc(N(C)CC(=O)NCc3cccc(Br)c3)sc2n1,inactive: 97%
18,CCOc1ccc(OCC)c(NC(=O)Cn2nc(CC)n3c(cc4sccc43)c2=O)c1,inactive: 65%
19,CCCCN(CC)CCCNC(=O)Cn1ncc2c3ccccc3n(C)c2c1=O,inactive: 131%

row,Structure (SMILES),survival
1,CCOc1ccc(S(=O)(=O)N(CC(=O)NCc2ccccc2OC)c2ccccc2)cc1,active: 37%
2,COc1cccc(CSc2nc3n(n2)C(CC(C)C)C(C(=O)Nc2ccccc2OC)=C(C)N3)c1 (configuration not stated),inactive: 75%
3,COc1ccc(C(=O)N2CCC(C(=O)Nc3ccc(Cl)cc3)CC2)cc1,inactive: 127%
4,COc1cccc(CNC(=O)c2oc3c(c2C)-c2nn(Cc4cccc(Cl)c4)cc2CC3)c1OC,inactive: 68%
5,COc1ccccc1C(=O)N1CCC(c2noc(-c3ccc(S(=O)(=O)N4CCCC4)cc3)n2)CC1,inactive: 98%
6,O=C(NCCc1ccc(Cl)cc1)c1ccc(CS(=O)Cc2ccccc2Cl)o1 (configuration not stated),inactive: 61%
7,CC(C)N(C)C1CCN(S(=O)(=O)c2ccc3[nH]c(=O)ccc3c2)CC1,inactive: 60%
8,CC(C)/C(N)=N/OC(=O)c1ccc(I)cc1,inactive: 51%
9,CC(C)CCn1c(=O)c2sccc2n2c(CCCC(=O)NCCc3ccccc3)nnc12,inactive: 68%
10,CCc1cccc(NC(=O)Cn2c(=O)n(CC(=O)NCCc3ccccc3)c(=O)c3ccccc32)c1,inactive: 102%
11,CCN(CC)C(=O)c1csc(Nc2ccc(C)cc2)n1,inactive: 87%
12,CCCCc1nn2c(=O)cc(COC(=O)c3ccc(NC(=O)CCc4ccccc4)cc3)nc2s1,inactive: 80%
13,CCOCCCN1C(=O)c2[nH]nc(-c3ccccc3O)c2C1c1ccc(CC)cc1 (configuration not stated),active: 39%
14,CCOC(=O)c1oc2c(c1C)-c1nn(Cc3c(F)cccc3Cl)cc1CC2,inactive: 56%
15,COCC(=O)N1CCC(c2nc3ccccc3[nH]2)CC1,inactive: 96%
16,Cc1cccc(NC(=O)C2CCN(c3nc4ccccc4[nH]3)CC2)c1C,inactive: 81%
17,Cc1ccc(C)c(CNC(=O)CCn2cccn2)c1,inactive: 94%
18,O=C(Nc1ccc2nc(SCC(=O)N3CCCC3)sc2c1)c1cccc(Br)c1,inactive: 57%
19,CCOC(=O)c1cnc2c(C(F)(F)F)cccc2c1Cl,inactive: 82%

row,Structure (SMILES),survival
1,Cc1cc(N2CCN(c3cccc(C)c3C)CC2)n2nc(C)c(-c3ccc(Cl)cc3)c2n1,inactive: 87%
2,CCOc1ccc(C2c3c(oc4ccccc4c3=O)C(=O)N2c2nnc(C)s2)cc1OC (configuration not stated),inactive: 83%
3,COc1ccc(-n2c(-c3ccco3)nc3c(cnn3-c3ccccc3C)c2=O)cc1,inactive: 125%
4,Cc1ccccc1CNC(=O)c1cc2cc(S(=O)(=O)N3CCCCC3)ccc2n1C,inactive: 102%
5,Cc1ccc(C(C)C)c(OCCCn2c(=O)oc3ccccc32)c1,active: -3%
6,CC(CNS(=O)(=O)c1ccc2c(c1)CC(=O)N2C)c1ccccc1 (configuration not stated),inactive: 100%
7,CCOC(=O)c1c(C)oc2nc(C)nc(NCCCN3CCN(c4ccc(F)cc4)CC3)c12,inactive: 84%
8,O=C(NC(=S)N1CCCC(C(F)(F)F)C1)c1ccc(F)cc1 (configuration not stated),inactive: 87%
9,COc1ccccc1NC(=O)c1ccc2oc(=O)c(S(=O)(=O)c3ccccc3)cc2c1,inactive: 98%
10,COc1ccc(C(=O)NCCn2cc(SCc3cc(C)ccc3C)c3ccccc32)cc1,inactive: 57%
11,COc1cccc(NC(=O)C2CCN(c3nc4ccccc4nc3C(F)(F)F)CC2)c1,inactive: 55%
12,Cc1cccc(Cn2nnc(C(=O)Nc3cc(C)ccc3C)c2N)c1,inactive: 100%
13,Cc1cccc(C)c1NC(=O)CCCN1C(=O)CCn2nc(-c3cn(C)c4ccccc34)cc21,inactive: 124%
14,Cc1ccc(CNC(=O)CCCn2c(=O)c3ccccc3n(Cc3ccccc3C)c2=O)cc1,inactive: 70%
15,CC(C)NC(=O)C1CCCN(c2ncnc3c2nc2n3CCCCC2)C1 (configuration not stated),inactive: 73%
16,Cc1cccc(Cn2cnc3c(cnn3-c3ccc(Cl)cc3)c2=O)c1,inactive: 87%
17,Cc1ccc(CN2CCN(C3CCN(C(=O)Nc4ccccc4C(F)(F)F)CC3)C(=O)C2=O)cc1,inactive: 73%
18,CCn1c(=O)cc(OCC(=O)N2CCN(c3ccccc3OC)CC2)c2ccccc21,inactive: 68%
19,Cc1ccc(S(=O)(=O)n2nc(-c3ccco3)nc2NCc2ccccc2Cl)cc1,inactive: 66%
